Here are results for 47 compounds from PubChem BioAssay AID1963576 (National Center for Advancing Translational Sciences (NCATS), 2024).

About 60 (0.1%) of roughly 46,000 compounds were called active. About 3% were inconclusive and are not listed. The call rests on the fitted dose curve; in most records, active means well fitted inhibition curve with a large enough effect; inconclusive means small, poorly fitted or top-dose-only effect; inactive means no such curve, though single readings can be large or run the other way. The list shows a part of the results.

This experiment in a line: Primary qHTS assay for Inhibitors of ovarian cancer metastasis using an organotypic tumor microenvironment (TME) model. Further: nearly all actives have a fitted effect of over 65% in size.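 On activity change, negative = inhibition: plate controls were DMSO wells for no effect and tomatine positive control wells for full effect.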 The conditions noted are these: SKOV3ip1-GFP adhesion/invasion on 3D omental model, fluorescence; series mostly up to 45.8 µM; activity change, negative = inhibition: at the top concentration. In a few lines: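 A 3D layer of primary human omental fibroblasts, mesothelial cells, fibronectin and collagen I, grown 48 hr, received SKOV3ip1-GFP cells in serum-free medium plus compounds at 0.36-46 umol/L. After 2 hr RT and 16 hr 37 C, fixed adherent GFP cells were counted; normalized to DMSO and tomatine.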
On the technique in general: qHTS replaces the single test concentration by a dilution series.
As to `CC(C)NC(=O)Cn1nc(N2CCN(c3ccccc3)CC2)ccc1=O`, the outcome was inactive.

`CCOc1cc(C2C(C(=O)OC)=C(C)NC3=C2C(=O)c2ccccc23)c(Br)cc1O` (configuration not stated): the “activity change, negative = inhibition” value is inactive: 11.6%.

As to `O=c1c(=O)n(Cc2c(F)cccc2Cl)ccn1Cc1ccccc1`, the “activity change, negative = inhibition” value was inactive: 2.39%.

In the case of `CC(=O)N1CCc2c(sc3c2c(=O)n(CCc2ccccc2)c(=O)n3Cc2cccc(C)c2)C1`, the outcome was inactive.

In the case of `CCN(CC)c1ccc(NC(=O)CN2C(=O)c3cccnc3Sc3ccccc32)c(C)c1`, the “activity change, negative = inhibition” value is inactive: -0.887%.

`COCCN1Cc2cccc(C(=O)Nc3ccc(Cl)cc3Cl)c2C1=O`: the compound was called inactive.

Turning to `CN(C1CCc2c(c3ccccc3n2CC(=O)O)C1)S(=O)(=O)c1ccc(F)cc1` (configuration not stated), the “activity change, negative = inhibition” value is inactive: -33.7%.

Turning to `COc1cccc(NC(=O)Cn2c(=O)n(CC(=O)NCCc3ccccc3)c(=O)c3sccc32)c1`, the “activity change, negative = inhibition” value was inactive: 5.12%.

As for `COc1ccc(N2CCN(C3C(=O)c4ccccc4N3C(C)=O)CC2)cc1` (configuration not stated), the “activity change, negative = inhibition” value was inactive: -10.9%.

Regarding `Cc1ccc(-c2c3c(=O)n(C)c(=O)n(C)c3cn2-c2cc(C)ccc2O)cc1`, the “activity change, negative = inhibition” value is inactive: 5.75%.

`O=C1CC(c2nc(-c3ccccc3)no2)CN1c1ccc2c(c1)OCCO2` (configuration not stated): the result was inactive.

In the case of `COC(=O)C1CCN(C(c2ccccc2)c2sc3nc(-c4ccco4)nn3c2O)CC1` (configuration not stated), the compound was called inactive.

As for `Cc1cc(Cl)ccc1NS(=O)(=O)c1ccc2c(c1)CC(C)N2C(=O)C1CCC1` (configuration not stated), the result was inactive.

Take `Cc1c(Cl)cccc1-n1ncc(C(=O)Nc2ccc(F)cc2F)c1C1CCN(C(=O)OC(C)(C)C)CC1`: the “activity change, negative = inhibition” value is inactive: 10.2%.

Consider `Cc1c(Cl)cccc1NC(=O)CSc1nc(=O)n(Cc2cccnc2)c2c1CCC2`, for which the compound was called inactive.

`CCOc1cccc(NC(=O)c2ccc(F)c(S(=O)(=O)N(CC)c3cccc(C)c3)c2)c1`: the compound was called inactive.

In the case of `Cc1ccc(CNC(=O)C2CCN(C(=O)c3cnn(-c4ccccc4)c3-n3cccc3)CC2)cc1`, the “activity change, negative = inhibition” value was inactive: -3.65%.

In the case of `Cc1ccc(Cn2cc(S(=O)(=O)c3ccc(C)cc3)c(=O)c3cc(F)c(N4CCCC4)cc32)cc1`, the “activity change, negative = inhibition” value was inactive: 2.58%.

`CCOC(=O)c1ccc(CN(Cc2ccc(C)cc2)S(=O)(=O)c2ccc(NC(C)=O)cc2)cc1`: the result was inactive.

For `CSc1cccc(NC(=O)C2CCN(S(=O)(=O)c3ccc4[nH]c5c(c4c3)CCCCC5)CC2)c1`, the outcome was inactive.

Turning to `Cc1ccc(NC(=O)C2CCCN(S(=O)(=O)c3c(C)n[nH]c3C)C2)cc1C` (configuration not stated), the “activity change, negative = inhibition” value is inactive: 4.61%.

On to `O=C(Nc1nnc(S(=O)(=O)N2CCCCCC2)s1)c1ccccc1Br`, for which the “activity change, negative = inhibition” value was inactive: -1.62%.

Regarding `COc1ccc(C)cc1NC(=O)Cn1c(=O)oc2cc(S(=O)(=O)NCc3ccccc3)ccc21`, the “activity change, negative = inhibition” value was inactive: 5.55%.

Consider `O=C(C1CCN(S(=O)(=O)Cc2ccccc2)CC1)N1CCN(c2cccc(Cl)c2)CC1`, for which the “activity change, negative = inhibition” value is inactive: -9.05%.

In the case of `CC(C)CCNC(=O)Nc1cc(C(=O)NCc2cccc(F)c2)ccc1N1CCCC1`, the “activity change, negative = inhibition” value is inactive: 7.06%.

As to `COc1ccc2c(c1)c1c(c(=O)n(Cc3ccccc3)c(=O)n1CC(=O)Nc1ccc(C)cc1C)n2C`, the “activity change, negative = inhibition” value is inactive: 17.5%.

Regarding `COc1ccc2c(c1)CC(C(=O)NCCN1CCN(c3cccc(C)c3C)CC1)CO2` (configuration not stated), the “activity change, negative = inhibition” value was inactive: 1.97%.

With `CC(=O)Nc1ccc(Nc2nnc(-c3ccc(C)c(S(N)(=O)=O)c3)c3ccccc23)cc1`, the outcome was inactive.

In the case of `CCCS(=O)(=O)N1CC(=O)N(c2ccc(Cl)cc2)C(C)(C(=O)NC2CCCC2)C1` (configuration not stated), the “activity change, negative = inhibition” value was inactive: -0.356%.

`CCn1cc2nc(SCc3ccc(F)cc3)n(Cc3ccc(Cl)cc3)c(=O)c2n1`: the “activity change, negative = inhibition” value is inactive: 1.64%.

With `COCCCNC(=O)CN1C(=O)CSc2ccc(S(=O)(=O)N3CCOCC3)cc21`, the “activity change, negative = inhibition” value is inactive: -1.82%.

Consider `O=C(NCc1ccccc1Cl)c1ccc(NC(=O)N2CCSc3ncccc32)cc1`, for which the “activity change, negative = inhibition” value is inactive: 4.26%.

For `COc1cccc(N2CCN(C(=O)c3cc4c(=O)n(Cc5ccco5)ccc4nc3C)CC2)c1`, the “activity change, negative = inhibition” value was inactive: 9.21%.

For `O=C(Nc1ccc(S(=O)(=O)N(Cc2ccccc2)c2ccccc2)cc1)c1ccc([N+](=O)[O-])cc1`, the “activity change, negative = inhibition” value was inactive: 3.64%.

Take `O=C(NCc1ccc2c(c1)CCN2C(=O)c1ccccc1)c1ccco1`: the outcome was inactive.

For `Cc1ccc(NC(=O)C(=O)NCCc2csc3nc(-c4ccccc4C)nn23)cc1Cl`, the outcome was inactive.

In the case of `COCCn1c(SCC(=O)Nc2ccc(C(F)(F)F)cc2)nc2c([nH]c3ccccc32)c1=O`, the compound was called inactive.

On to `Cc1ccc(NC(=O)c2oc3ccc(S(=O)(=O)N4CCC5(CC4)OCCO5)cc3c2C)c(C)c1`, for which the “activity change, negative = inhibition” value was inactive: 2.99%.

For `CCCCCOC(=O)c1ccc(OC(=O)c2sc3ncn(Cc4cccc(F)c4)c(=O)c3c2C)cc1`, the “activity change, negative = inhibition” value was inactive: 5.92%.

On to `CCCN(CCC)CCNC(=O)C1CCCN(S(=O)(=O)c2cccc3nsnc23)C1` (configuration not stated), for which the “activity change, negative = inhibition” value is inactive: 12.6%.

For the compound `CCOC(=O)c1cc(S(=O)(=O)N2CCN(c3ccc(F)cc3)CC2)[nH]n1`, the “activity change, negative = inhibition” value was inactive: 15.3%.

As to `CCC1=C(c2ccc(C)cc2)S(=O)(=O)N=C1N1CCC(C(=O)NCc2ccccc2Cl)CC1`, the compound was called inactive.

On to `CC(=O)N1CCCc2cc(S(=O)(=O)N3CCCC(C(=O)Nc4cccc(Cl)c4C)C3)ccc21` (configuration not stated), for which the “activity change, negative = inhibition” value was inactive: -13.7%.

Regarding `CCOC(=O)c1cnc2ccc(OCC)cc2c1Nc1cc(Cl)c(OC)cc1OC`, the “activity change, negative = inhibition” value was inactive: 2.6%.

Take `CC(C)Cn1cc(C(=O)N2CCN(c3cccc(Cl)c3)CC2)c2c3ccccc3n(C)c2c1=O`: the “activity change, negative = inhibition” value is inactive: -16.9%.

In the case of `COc1ccc(OC)c(NC(=O)N2CCC(CN3CCCCC3)CC2)c1`, the “activity change, negative = inhibition” value is inactive: 0.735%.

Turning to `COc1ccc(OC)c(CNc2sc3c(c2C(=O)Nc2cc(OC)ccc2OC)CCCC3)c1`, the “activity change, negative = inhibition” value was inactive: -2.29%.
